Measurements published in the supplement of paper PMC3724861.
The other results are listed elsewhere or left out.

Test system: T1, Caupolican (Caup) homeodomain DNA-binding domain
T1 sequence: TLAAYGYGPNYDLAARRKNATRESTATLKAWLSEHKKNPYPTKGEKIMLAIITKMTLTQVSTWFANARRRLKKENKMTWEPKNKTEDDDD
Assay: PBM E-score (8-mer, recovered from the published 9-mer minima) (E-score (dimensionless, -0.5 to 0.5)); Drosophila protein; higher = stronger relative binding preference, active = 0.31 or more
Summary of the method: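 Caup's homeodomain DNA-binding domain (residues 214-303) was made by in vitro transcription and translation and applied at 100 nM to custom-designed protein binding microarrays. Each value is an enrichment score that gives relative binding preference for a short DNA word, with higher meaning stronger. The 8-mer values were recovered from published 9-mer scores, each of which was the minimum of its two constituent 8-mer scores. A cutoff of 0.31 marks candidate sites.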

Sequence	PBM E-score
TCAGGTCA	inactive: -0.108
ATGTGAGC	inactive: 0.0896
AAGCTTTG	inactive: -0.0314
AAGATAGC	inactive: -0.0217
CGTCCCGC	inactive: -0.198
AACGTTCG	inactive: -0.0877
ACTCGTGA	inactive: 0.0139
ATATTGGC	inactive: 0.0615
CACCTGCG	inactive: -0.137
GCATAAAA	inactive: 0.134
AAGCACCT	inactive: -0.0929
CCGGGTGA	inactive: -0.151
CTCGGCAG	inactive: -0.132
AAGTGCGT	inactive: -0.0258
AACGTACT	inactive: 0.139
TCCAATAA	inactive: 0.0481
GACTGCAA	inactive: 0.00269
ACACATCC	inactive: 0.124
ACATAGAC	inactive: 0.201
CGCCCCGC	inactive: -0.246
GGTGTTGA	inactive: 0.0856
AAGGCAAT	inactive: 0.00024
AAGCCCAG	inactive: -0.11
ATAGCCTG	inactive: 0.0385
CTGACAAA	inactive: 0.132

Sequence	PBM E-score
CAACCACA	inactive: 0.0655
AAAGGATT	inactive: 0.0321
ATACTGGA	inactive: 0.0737
AGCACCGA	inactive: -0.00623
AAAAGGCA	inactive: 0.00892
AAAGTGCT	inactive: 0.0144
TGTACACA	active: 0.407
ACCCCGGA	≥ -0.0927
GCACTCAA	inactive: -0.0869
ATATCACG	inactive: 0.127
CGCATAAA	inactive: 0.0773
CCTGATTC	inactive: -0.00755
ATTAAGAC	inactive: 0.0818
CATTCAGA	inactive: -0.0203
ATCCGCTA	inactive: -0.0754
ACACATGT	active: 0.372
GCGTGTCC	inactive: 0.223
CATTAACG	inactive: 0.112
AAGAATCA	inactive: 0.134
ACCTGGGC	inactive: -0.195
GGTTGAAC	inactive: 0.0642
CCCCGGGG	inactive: -0.3
CAATCCCG	inactive: -0.047
GAAGCACA	inactive: 0.0307
ATACCGTG	inactive: 0.154

Sequence	PBM E-score
ATTTCTAC	inactive: 0.0511
ACTACTTG	inactive: 0.262
AACTTAAC	inactive: 0.0987
GCACGTGA	inactive: -0.0192
AGGCAGGC	inactive: -0.23
AGGGTATG	inactive: 0.0849
ATGGACAA	inactive: 0.249
AACTGTGG	inactive: 0.0281
CGGAAAAA	inactive: 0.0139
ATTATCGC	inactive: 0.0263
CCAATTCC	inactive: 0.0217
ATACTCAT	inactive: 0.167
CGCGTCAG	inactive: -0.0788
GAGAGGAA	inactive: -0.0698
AATCAAAT	inactive: 0.141
ATTTAACA	inactive: 0.279
AGAAAGGA	inactive: -0.116
ACCAGAAC	inactive: 0.0464
CTTCTTCC	inactive: -0.072
TGAGATCA	inactive: -0.0367
AGCCAACC	inactive: -0.104
AAGACGAC	inactive: 0.0966
ACGTTTGG	inactive: 0.0157
ACACTGCA	inactive: 0.0644
ACCGGGGA	inactive: -0.177

Sequence	PBM E-score
GTGTAAAC	inactive: 0.293
ATGTATCG	active: 0.337
ATCAGGTG	inactive: -3e-05
CTAAAGCA	inactive: 0.00186
AAGGCATC	inactive: -0.0476
CGAGTGCG	inactive: -0.0787
AGAGACTC	inactive: -0.0898
CTAGAGTC	inactive: -0.084
TCCGAAGA	inactive: -0.161
CAATACCC	inactive: 0.0149
ACCGACGG	inactive: -0.16
CGATGGCA	inactive: -0.0609
CGCAATAG	inactive: -0.0611
CTGTGTTC	inactive: 0.239
AACGCATA	inactive: -0.0123
CAGAAAGG	inactive: -0.149
TTACGCAA	inactive: 0.0821
AGTCACAG	inactive: 0.0714
CCCCCGCA	inactive: -0.226
GTACAGTA	inactive: 0.209
AACAGTGA	inactive: 0.0473
CTTCAATA	inactive: 0.12
TGGCGAAA	inactive: -0.0635
TAGCACAA	inactive: 0.0785
GCGTCCAA	inactive: -0.144

Sequence	PBM E-score
GTGATAAA	inactive: 0.00709
TACGCTCA	inactive: -0.00447
CGGAGAAC	inactive: -0.023
CAGGGAAG	inactive: -0.155
TAAGACTA	inactive: 0.0925
GAGAATCC	inactive: -0.145
GAATTTGA	inactive: -0.00072
GAAGGGAA	inactive: -0.177
AACTCGAG	inactive: -0.0398
AAAGATCG	inactive: -0.0799
CGTCTCAG	inactive: -0.0946
ACCTCTCC	inactive: -0.167
CTTAATAC	inactive: 0.0345
ACAGTGGA	inactive: 0.0583
CATAGCTC	inactive: -0.0402
CGAGCGTA	inactive: -0.0126
CGATGATA	inactive: 0.0138
CAGGGTCC	inactive: -0.191
ACGATGTA	active: 0.36
CAGATTAC	inactive: 0.177
ATTTACCC	inactive: 0.0529
GGAGTGTA	inactive: 0.0526
ACCATAAA	≥ 0.127
CCCAATAC	inactive: -0.0626
AAGAACCC	inactive: -0.0901

Sequence	PBM E-score
TAGACGAA	inactive: 0.0142
AGAGTGCA	inactive: 0.0131
GAGTGTCA	inactive: 0.0896
CTTAAAGA	inactive: -0.0138
CATAACAG	inactive: 0.0846
AGGAACGG	inactive: -0.132
CTTTGGTA	inactive: -0.118
ATTAACAC	active: 0.326
GCCCACCA	inactive: -0.195
AACTTGTA	active: 0.364
CCCAAGCG	inactive: -0.138
CATATGAA	inactive: 0.0819
GAGATCTA	inactive: -0.0358
GTACTCGA	inactive: 0.114
TGTTACAA	active: 0.42
ACGCTCGC	inactive: -0.12
AGAGTCTG	inactive: -0.102
GGAGCTAC	inactive: -0.0961
TAGCCAGA	inactive: -0.0945
AGCTAATC	inactive: 0.0404
GTCCACGA	inactive: -0.0514
AGCCCAGC	inactive: -0.172
AATTGTAA	inactive: 0.209
ATGCTTAA	inactive: 0.0943
CATCACGC	inactive: -0.0712

Sequence	PBM E-score
AAGCTACA	inactive: 0.15
CATTCCTC	inactive: -0.0336
GACCCTTA	inactive: -0.124
GAAACCTA	inactive: -0.0661
AAGATTAA	inactive: 0.1
ATTTGTAC	inactive: 0.277
CATAGACA	inactive: 0.228
GAGTCTGA	inactive: -0.0772
TCATGTAA	active: 0.427
AGCGGCCC	inactive: -0.254
AAATGCGT	inactive: 0.0483
ACTACAGT	inactive: 0.151
ATGTTGCC	inactive: 0.121
GCGTTCAC	inactive: -0.0456
CAAGCCTG	inactive: 0.00099
ATACCTAT	inactive: 0.118
ACTTCTCC	inactive: -0.102
ATAGAGGG	inactive: -0.0428
CGTAGGTC	inactive: -0.0431
AACATCAA	active: ≥ 0.316
GCGAGTGA	inactive: -0.141
TGGTAAAA	≥ 0.125
ACTAAGAT	≥ 0.127
CAATCCGC	inactive: -0.106
CGAGAGAC	inactive: -0.12

Sequence	PBM E-score
CGTCTCAC	inactive: -0.0206
AATGCAAG	inactive: 0.0828
GAGCTGAA	inactive: -0.0913
ATATATTG	inactive: 0.153
CTATTTAC	inactive: 0.203
ATTGGGCG	inactive: -0.135
AATCACGC	inactive: 0.0789
ACCGAGTA	inactive: -0.00765
GGCTTATA	inactive: -0.0604
TCCCGCCA	inactive: -0.22
CTGGTATA	inactive: 0.109
TATTGCGA	inactive: -0.0121
TCCAAGAA	inactive: 0.00283
AAGCTAAG	inactive: -0.105
CCACGGAG	inactive: -0.126
CACCCAGG	inactive: -0.099
CCAGTTTC	inactive: -0.129
TTCTCAAA	≥ 0.12
CTAAACCC	inactive: -0.0636
GCTCTGCA	inactive: -0.166
AAGCTTAA	inactive: -0.0246
CACCACGG	inactive: -0.0772
AACTACCA	≥ 0.181
GGTCGTCA	inactive: 0.0554
CACATACA	inactive: 0.232

Sequence	PBM E-score
CAAACTTA	inactive: 0.0306
ATTTTGGG	inactive: -0.121
ACGGTGAA	inactive: 0.0334
GTCGTCAC	inactive: 0.0152
GCCTGTGA	inactive: -0.0406
CCTAAACC	inactive: -0.0841
CTAGATCC	inactive: -0.0709
CCCAACAA	≥ 0.196
AGCATGCT	inactive: 0.092
CGACACAG	inactive: 0.163
GGTCTCAA	inactive: -0.0699
ATTATTAG	inactive: 0.152
CTACGTTA	inactive: 0.128
GAATTAAA	inactive: -0.0173
ACCGCCGG	inactive: -0.244
TAGTACTA	inactive: 0.236
GTTGTTCA	≥ 0.292
AGCACTTA	inactive: 0.0785
ATTAGGTC	inactive: 0.0688
CCGAGCAA	inactive: -0.0521
CAGATAGA	inactive: -0.0148
CCGCACCA	inactive: -0.0769
GGAAGCCA	inactive: -0.191
CCGTGGTC	inactive: -0.196
